The other results are listed elsewhere or left out.
The molecules below were run on HSkMC (human skeletal muscle cells) (assay: cytotoxicity call (relative viability < 0.9)). Details: 10 µM.

SMILES | cytotoxicity call
C[C@@H]1CCCCO[C@H](CN(C)S(=O)(=O)c2ccccc2)[C@H](C)CN([C@H](C)CO)C(=O)c2cc(NS(=O)(=O)c3cn(C)cn3)ccc2O1 | inactive
C[C@@H]1CN([C@H](C)CO)C(=O)c2cc(NS(=O)(=O)c3cn(C)cn3)ccc2O[C@H]1CN(C)CC1CC1 | inactive
CC(C)C#Cc1ccc2c(c1)O[C@@H](CN(C)S(=O)(=O)c1cn(C)cn1)[C@@H](C)CN([C@@H](C)CO)S2(=O)=O | inactive
COc1cc(NS(C)(=O)=O)ccc1Nc1c2ccccc2nc2ccccc12 | inactive
CN(C)CCCNC(=O)[C@@]1(Cc2ccccc2I)c2ccccc2C(=O)N(C2CCCCC2)[C@H]1c1ccc(CO)cc1 | inactive
C[C@@H]1CN([C@@H](C)CO)C(=O)CCCn2cc(nn2)CO[C@H]1CN(C)C(=O)Nc1ccc2c(c1)OCCO2 | inactive
O=C(C[C@@H]1CC[C@H]2[C@@H](COC[C@H](O)CN2C(=O)Nc2cccc(Cl)c2)O1)NCCCN1CCOCC1 | inactive
CC(C)NC(=O)N(C)C[C@@H]1Oc2ccc(NC(=O)CCN3CCOCC3)cc2CC(=O)N([C@H](C)CO)C[C@@H]1C | inactive
C[C@H]1CCCCO[C@@H](CN(C)Cc2ccc(C(=O)O)cc2)[C@@H](C)CN([C@@H](C)CO)C(=O)c2cc(NC(=O)CCC(F)(F)F)ccc2O1 | inactive
NCC1CCN(Cc2ccccc2)CC1 | inactive
N#Cc1ccc(N2CCCNCC2)nc1 | inactive
CC(C)CC#Cc1ccc2c(c1)O[C@@H](CN(C)C(=O)c1ccccn1)[C@@H](C)CN([C@@H](C)CO)S2(=O)=O | inactive
CN(C)Cc1cn(CC[C@@H]2CC[C@H](NS(=O)(=O)c3ccccc3)[C@H](CO)O2)nn1 | inactive
C[C@@H]1CN([C@@H](C)CO)C(=O)c2cccc(NC(=O)C3CCCCC3)c2O[C@@H]1CN(C)Cc1ccc(-c2ccccc2)cc1 | inactive
C[C@@H]1CCCCO[C@H](CN(C)C(=O)CCC(F)(F)F)[C@@H](C)CN([C@@H](C)CO)C(=O)c2cc(NS(=O)(=O)c3ccccc3)ccc2O1 | inactive
CCCN1C[C@@H](C)[C@H](OC)CN(C)C(=O)c2cc(NS(=O)(=O)c3cn(C)cn3)ccc2OC[C@@H]1C | inactive
COc1ccc(C2CNC(=O)C2)cc1OC1CCCC1 (centres undefined) | inactive
C[C@@H]1CCCCO[C@@H](CN(C)Cc2ccc(C(=O)Nc3ccccc3N)cc2)[C@@H](C)CN([C@H](C)CO)C(=O)c2cc(NC(=O)Nc3ccc4c(c3)OCO4)ccc2O1 | inactive
CN(C)CCCCSC(=N)N | inactive
C[C@@H]1CN([C@H](C)CO)C(=O)c2cc(NC(=O)Cc3cn(C)c4ccccc34)ccc2O[C@H]1CN(C)C(=O)Nc1cccc2ccccc12 | active

SMILES | cytotoxicity call
C[C@H]1CN([C@@H](C)CO)C(=O)c2cccc(NC(=O)C3CCOCC3)c2O[C@H]1CN(C)Cc1ccccc1 | inactive
Cc1ccc(S(=O)(=O)N(C)C[C@@H]2OCCCC[C@@H](C)Oc3ccc(NC(=O)Nc4ccc5c(c4)OCO5)cc3C(=O)N([C@H](C)CO)C[C@H]2C)cc1 | inactive
C[C@H](CO)N1C[C@H](C)[C@H](CN(C)C(=O)Cc2ccccn2)Oc2cc(-c3cccc(C(=O)N(C)C)c3)ccc2S1(=O)=O | inactive
C[C@@H]1CN([C@@H](C)CO)S(=O)(=O)c2ccc(C#Cc3ccncc3)cc2O[C@@H]1CN(C)S(=O)(=O)c1ccc(F)cc1 | inactive
C[C@@H]1CN([C@@H](C)CO)C(=O)c2ccccc2-c2ccccc2CO[C@@H]1CN(C)Cc1ccc(C(F)(F)F)cc1 | inactive
CC(=O)CNC(=O)Cc1ccccc1 | inactive
O=S(=O)(NCc1ccco1)N1CCOCC1 | inactive
CN(C)CCCNC(=O)C[C@@H]1CC[C@@H](NS(=O)(=O)c2ccccc2)[C@@H](CO)O1 | inactive
COc1ccc(S(=O)(=O)N(C)C[C@@H]2Oc3ccc(NC(=O)NC(C)C)cc3C(=O)N([C@H](C)CO)C[C@@H]2C)cc1 | inactive
C[C@@H]1CCCCO[C@@H](CN(C)CC2CC2)[C@H](C)CN([C@@H](C)CO)C(=O)c2cc(NC(=O)Nc3ccc(C(F)(F)F)cc3)ccc2O1 | inactive
CCC[C@@H](O)C#Cc1cnc2c(c1)C(=O)N([C@H](C)CO)C[C@H](C)[C@H](CN(C)C(=O)Nc1ccccc1)O2 | inactive
CC(=O)OCC(CCn1cnc2cnc(N)nc21)COC(C)=O | inactive
C[C@H](CO)N1C[C@H](C)[C@H](CN(C)S(=O)(=O)c2cccs2)Oc2ccc(NS(C)(=O)=O)cc2CC1=O | inactive
C[C@@H]1CN([C@@H](C)CO)C(=O)c2cc(NC(=O)Nc3ccc(F)cc3)ccc2O[C@@H](C)CCCCO[C@H]1CN(C)C(=O)c1ccccc1 | inactive
C[C@@H]1CCCCO[C@@H](CN(C)Cc2ccc3c(c2)OCO3)[C@@H](C)CN([C@@H](C)CO)C(=O)c2cc(NS(=O)(=O)c3ccccc3)ccc2O1 | inactive
C#CCN([C@H](/C=C/C1CC1)[C@@H](O)Cc1ccccc1)[C@@H](Cc1ccc(-n2cc(C(=O)NO)nn2)cc1)C(=O)OC | inactive
O=C(O)c1ccc(O)c(C(=O)O)c1 | inactive
C[C@@H]1CN([C@@H](C)CO)C(=O)c2cccc(NS(=O)(=O)c3ccc(Cl)cc3)c2O[C@H]1CN(C)S(=O)(=O)c1cn(C)cn1 | inactive
C[C@@H]1CN([C@@H](C)CO)C(=O)c2cc(NC(=O)CCC(F)(F)F)ccc2O[C@@H]1CN(C)S(C)(=O)=O | inactive

Reference: the antibiotic and cytotoxicity screens of Wong et al. (2023)
